Test results published in patent US20250326826A1 (CENTRO DE INGENIER A GEN TICA Y BIOTECNOLOG A, published 2025).

T1: GST-hVEGF121 (human, UniProt P15692-9 27-147)
T1 construct: plate coating of the VEGF ELISAs; also called human VEGF; not shown: glutathione S-transferase (GST) fusion partner
T1 sequence (looked up): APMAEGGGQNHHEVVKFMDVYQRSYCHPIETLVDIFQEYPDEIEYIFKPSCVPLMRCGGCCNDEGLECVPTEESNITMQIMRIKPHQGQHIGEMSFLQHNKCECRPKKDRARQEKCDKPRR

T2: Human VEGF (dendritic cell assay) (human, UniProt P15692-4 27-191, limits assumed)
T2 sequence (looked up): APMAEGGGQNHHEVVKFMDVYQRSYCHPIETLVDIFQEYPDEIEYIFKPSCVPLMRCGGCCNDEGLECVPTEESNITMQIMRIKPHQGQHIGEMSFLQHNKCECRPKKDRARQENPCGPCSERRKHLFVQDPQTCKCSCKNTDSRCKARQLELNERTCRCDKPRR


Assays:
[1] = target: T1, GST-hVEGF121; assay: ELISA, coated GST-hVEGF, anti-human IgG detection
[2] = target: VEGF (soluble stimulus added to cell cultures); assay: cell-based or functional assay
[3] = target: T2, Human VEGF (dendritic cell assay); assay: cell-based or functional assay
[4] = target: T3, Recombinant human bFGF (human, UniProt P09038 partial chain, limits assumed); assay: competition ELISA, coated bFGF, competitor FGFR1
T3 construct: Bought (Sigma); also called hFGF-2; human basic fibroblast growth factor

[5] = target: T3, Recombinant human bFGF; assay: ELISA, coated human bFGF, anti-human IgG detection
[6] = target: T1, GST-hVEGF121; assay: competition ELISA, coated GST-hVEGF, competitor VEGFR2

T3 sequence (P09038 143-288 limits assumed): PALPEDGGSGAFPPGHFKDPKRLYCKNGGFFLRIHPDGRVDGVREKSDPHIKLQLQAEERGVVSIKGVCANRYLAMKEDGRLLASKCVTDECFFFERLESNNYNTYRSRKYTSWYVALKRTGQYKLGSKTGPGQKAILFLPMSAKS

| Binder | EC50 [1] [nM] | IC50 [4] [nM] | EC50 [5] [nM] | IC50 [6] [nM] | further results |
| --- | --- | --- | --- | --- | --- |
| Nb-FV1_hFc (Fc fusion, homodimer; also called Nb-FV1_Fc) QVQLVESGGGLVQPGGSLRLSCAASGTEDGRLLTLGGSWFRQAPGQGLEAVAAIGAGDRGGATYYADSVKGRFTISRDNSKNTLYLQMNSLRAEDTAVYYCTALYERQPQLAATKVARKWGQGTLVTVSSAHHSEDPSSKAPKAPAQVQLVESGGGLVQPGGSLRLSCAASGNSAEDRLYNSYTWFRQAPGQGLEAVAAISSHFSAGLTYYADSVKGRFTISRDNSKNTLYLQMNSLRAEDTAVYYCEITSHASHNDAWSTPRTVWGQGTLVTVSSRGGGGSGGGGSA[no letters for human IgG1 Fc with E283K (EU numbers)] | 1.79 | 27 | 4.55 | 5.56 | PD1 expression (%) in CD8+ cells treated with VEGF, VHH 1 µg/mL [2]: 60%; PD1 expression (%) in CD8+ cells treated with VEGF, VHH 5 µg/mL [2]: 51%; PD1 expression (%) in CD8+ cells treated with VEGF, VHH 10 µg/mL [2]: 43%; CD86 (MFI) on dendritic cells +VEGF +LPS, VHH 1 µg/mL [3]: 2000 MFI; CD86 (MFI) on dendritic cells +VEGF +LPS, VHH 5 µg/mL [3]: 3150 MFI; CD86 (MFI) on dendritic cells +VEGF +LPS, VHH 10 µg/mL [3]: 18000 MFI; MHCII (MFI) on dendritic cells +VEGF +LPS, VHH 1 µg/mL [3]: 5440 MFI; MHCII (MFI) on dendritic cells +VEGF +LPS, VHH 5 µg/mL [3]: 5300 MFI; MHCII (MFI) on dendritic cells +VEGF +LPS, VHH 10 µg/mL [3]: 18800 MFI |
| Nb-V1_hFc (Fc fusion, Fusion to human IgG1 Fc, from CHO cells) QVQLVESGGGLVQPGGSLRLSCAASGNSAEDRLYNSYTWFRQAPGQGLEAVAAISSHFSAGLTYYADSVKGRFTISRDNSKNTLYLQMNSLRAEDTAVYYCEITSHASHNDAWSTPRTVWGQGTLVTVSSRGGGGSGGGGSA[no letters for human IgG1 Fc with E283K (EU numbers)] | 1.64 |  |  | 5.59 |  |
| Nb-F3_hFc (Fc fusion, Fusion to human IgG1 Fc, from CHO cells) QVQLVESGGGLVQPGGSLRLSCAASGTEDGRLLTLGGSWFRQAPGQGLEAVAAIGAGDRGGATYYADSVKGRFTISRDNSKNTLYLQMNSLRAEDTAVYYCTALYERQPQLAATKVARKWGQGTLVTVSSRGGGGSGGGGSA[no letters for human IgG1 Fc with E283K (EU numbers)] |  | 26.9 | 4.51 |  |  |
| Nb-VV6_hFc (Fc fusion, homodimer) QVQLVESGGGLVQPGGSLRLSCAASGNSAEDRLYNSYTWFRQAPGQGLEAVAAISSHFSAGLTYYADSVKGRFTISRDNSKNTLYLQMNSLRAEDTAVYYCEITSHASHNDAWSTPRTVWGQGTLVTVSSAHHSEDPSSKAPKAPAQVQLVESGGGLVQPGGSLRLSCAASGNSAQDRLYNSYTWFRQAPGQGLEAVAAISSHFSAGLTYYADSVKGRFTISRDNSKNTLYLQMNSLRAEDTAVYYCEITSHASHNDAWSTPRTVWGQGTLVTVSSRGGGGSGGGGSA[no letters for human IgG1 Fc with E283K (EU numbers)] | 0.784 |  |  | 1.12 |  |
| Nb-FF2_hFc (Fc fusion, Fusion to human IgG1 Fc, from CHO cells) QVQLVESGGGLVQPGGSLRLSCAASGTEDGRLLTLGGSWFRQAPGQGLEAVAAIGAGDRGGATYYADSVKGRFTISRDNSKNTLYLQMNSLRAEDTAVYYCTALYERQPQLAATKVARKWGQGTLVTVSSAHHSEDPSSKAPKAPAQVQLVESGGGLVQPGGSLRLSCAASGTEDGRLLTLGGSWFRQAPGQGLEAVAAIGAGDRGGATYYADSVKGRFTISRDNSKNTLYLQMNSLRAEDTAVYYCTALYERQPQLAATKVARKWGQGTLVTVSSRGGGGSGGGGSA[no letters for human IgG1 Fc with E283K (EU numbers)] |  | 6.69 | 2.1 |  |  |
| Nb-VF3_hFc (Fc fusion, Fusion to human IgG1 Fc, from CHO cells) QVQLVESGGGLVQPGGSLRLSCAASGNSAEDRLYNSYTWFRQAPGQGLEAVAAISSHFSAGLTYYADSVKGRFTISRDNSKNTLYLQMNSLRAEDTAVYYCEITSHASHNDAWSTPRTVWGQGTLVTVSSAHHSEDPSSKAPKAPAQVQLVESGGGLVQPGGSLRLSCAASGTEDGRLLTLGGSWFRQAPGQGLEAVAAIGAGDRGGATYYADSVKGRFTISRDNSKNTLYLQMNSLRAEDTAVYYCTALYERQPQLAATKVARKWGQGTLVTVSSRGGGGSGGGGSA[no letters for human IgG1 Fc with E283K (EU numbers)] | 1.88 | 26.8 | 4.65 | 5.46 |  |
